Here are results for 35 molecules from the supplement of paper PMC9446081.

The whole screen tested about 39,000 compounds, of which about 220 (0.56%) showed activity. The list shows a part of the results.
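Note: static incubation at 37 °C against the wild-type strain, values averaged over two biological replicates.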

The experiment relates to Escherichia coli K-12 BW25113. Kind of experiment: relative growth (OD600 normalised to plate interquartile mean) (fraction); higher = less growth inhibition, active = 0.2 or less. Particulars: 50 µM; LB; incubation time: overnight (16-24 h).
For the molecule `C[C@H]1CN([C@@H](C)CO)C(=O)c2cccc(NC(=O)c3ccc(-c4nccs4)cc3)c2O[C@@H]1CN(C)C(=O)Nc1ccc(F)cc1`, the relative growth was inactive: 0.981.

For `C[C@@H]1CN([C@@H](C)CO)C(=O)CCCn2cc(nn2)CO[C@H]1CN(C)Cc1ccc2c(c1)OCCN2C`, the relative growth was inactive: 1.01. The same measure for `C[C@H](CO)N1C[C@H](C)[C@H](CN(C)S(=O)(=O)c2cn(C)cn2)Oc2c(NC(=O)C3CCCCC3)cccc2C1=O`: inactive: 1.02; for `Cn1cc(N2C[C@]3(CCN(S(C)(=O)=O)C3)CC2=O)cn1`: inactive: 0.97; for `Cc1ccc(S(=O)(=O)Nc2ccc3c(c2)C(=O)N([C@@H](C)CO)C[C@@H](C)[C@@H](CN(C)Cc2ccc(C(F)(F)F)cc2)OCCCC[C@H](C)O3)cc1`: inactive: 1. Take `Nc1nc(=O)c2ncn(CCC(CO)CO)c2[nH]1`: the relative growth was inactive: 1.

`C[C@@H]1CCCCO[C@@H](CN(C)Cc2ccc3c(c2)OCO3)[C@@H](C)CN([C@H](C)CO)C(=O)c2cc(NS(=O)(=O)c3ccccc3)ccc2O1`: the relative growth is inactive: 1.01. As to `Cn1c2c(c(=O)n(C)c1=O)/N=N\c1c(c(=O)n(C)c(=O)n1C)/N=N\2`, the relative growth was inactive: 0.997. The result for `C[C@@H]1CN([C@@H](C)CO)C(=O)c2cccc(NS(=O)(=O)c3ccc(Cl)cc3)c2O[C@H]1CN(C)S(=O)(=O)c1cn(C)cn1` reads inactive: 0.989; that for `COC(=O)C1=C2CC[C@@H](COC(=O)NCCCCCC(=O)NO)NC(=O)N[C@H](Cc3ccccc3)c3cn(nn3)C[C@H](Cc3ccccc3)NC(=O)c3oc(c(C(=O)OC)c3C(=O)OC)CC[C@@H](COC(=O)NCCCCCC(=O)NO)NC(=O)N[C@H](Cc3ccccc3)c3cn(nn3)C[C@H](Cc3ccccc3)NC(=O)C(=C1C(=O)OC)O2`, inactive: 0.992; that for `C[C@H](CO)N1C[C@H](C)[C@@H](CN(C)Cc2ccc(Oc3ccccc3)cc2)Oc2ccc(NC(=O)Nc3ccc4c(c3)OCO4)cc2CC1=O`, inactive: 0.988.

Consider `C[C@@H]1CN([C@@H](C)CO)C(=O)c2cc(NS(=O)(=O)c3cn(C)cn3)ccc2O[C@H]1CN(C)CC1CC1`, for which the relative growth is inactive: 0.993. For the molecule `CC(C)NC(=O)Nc1ccc2c(c1)C(=O)N([C@@H](C)CO)C[C@H](C)[C@H](CN(C)Cc1ccccc1)OCCCC[C@H](C)O2`, the relative growth is inactive: 0.994. As for `CC1(C)CCC2(C)CCC3(C)C(=CCC4C5(C)CCC(O)C(C)(C)C5CCC43C)C2C1` (stereo not drawn) [beta-AMYRIN], the relative growth was inactive: 1.13. Consider `COC(=O)C1=C2CC[C@H](CO)NC(=O)N[C@H](Cc3ccccc3)C(=O)NCc3cn(nn3)C[C@H](Cc3ccccc3)NC(=O)c3oc(c(C(=O)OC)c3C(=O)OC)CC[C@H](CO)NC(=O)N[C@H](Cc3ccccc3)C(=O)NCc3cn(nn3)C[C@H](Cc3ccccc3)NC(=O)C(=C1C(=O)OC)O2`, for which the relative growth was inactive: 1.01. The same measure for `O=c1/c(=C\c2ccc(F)cc2)sc2n1CCN=2`: inactive: 0.929; for `C[C@@H]1CCCCO[C@@H](CN(C)C(=O)NC2CCCCC2)[C@H](C)CN([C@H](C)CO)C(=O)c2cc(NC(=O)Nc3cccc4ccccc34)ccc2O1`: inactive: 0.994; for `O=C(C[C@@H]1C[C@@H]2c3cc(NC(=O)Cc4ccncc4)ccc3O[C@@H]2[C@@H](CO)O1)NCc1cccc(F)c1`: inactive: 0.993.

For the molecule `C[C@H]1CCCCO[C@H](CN(C)Cc2ccc(C(F)(F)F)cc2)[C@@H](C)CN([C@@H](C)CO)C(=O)c2cc(NC(=O)NC3CCCCC3)ccc2O1`, the relative growth is inactive: 0.981. The result for `C[C@@H]1CN([C@H](C)CO)C(=O)c2cc(C#CCC3CCCC3)cnc2O[C@H]1CN(C)C(=O)c1cnccn1` reads inactive: 1.04; that for `Nc1nnc(C(=O)c2ccccc2N)s1`, inactive: 0.951. The same measure for `COc1ccc(NC(=O)Nc2ccc3c(c2)C(=O)N([C@@H](C)CO)C[C@H](C)[C@@H](CN(C)Cc2ccncc2)OCCCC[C@H](C)O3)cc1`: inactive: 1.01. For `COc1ccc2c3c([nH]c2c1)[C@@H](CO)N(C[C@]13CN(CCc2ccccc2)C1)C(=O)CN1CCOCC1`, the relative growth is inactive: 0.982.

Regarding `O=C(C[C@@H]1CC[C@@H]2[C@H](COC[C@H](O)CN2Cc2ccccc2F)O1)N[C@@H]1CCN(Cc2ccccc2)C1`, the relative growth is inactive: 0.953. Take `COCCN1CCNCC1`: the relative growth is inactive: 0.963.

As for `N#C[C@@H]1[C@H](c2ccc(C#Cc3ccccn3)cc2)[C@@H](CO)N1C(=O)CN1CCOCC1`, the relative growth was inactive: 1.03.

For the molecule `Cc1ccc(S(=O)(=O)Nc2ccc3c(c2)C(=O)N([C@H](C)CO)C[C@H](C)[C@@H](CN(C)C(=O)Cc2ccccc2)OCCCC[C@@H](C)O3)cc1`, the relative growth is inactive: 1.05. Take `O=C(CCCCC(=O)N/N=C/[C@H](O)[C@@H](O)[C@H](O)[C@H](O)CO[C@H]1O[C@H](CO)[C@H](O)[C@H](O)[C@H]1O)NO`: the relative growth was inactive: 1.02.

For the molecule `C[C@H]1CCCCO[C@H](CN(C)C(=O)Nc2cccc3ccccc23)[C@@H](C)CN([C@@H](C)CO)C(=O)c2cc(NC(=O)Nc3cccc4ccccc34)ccc2O1`, the relative growth is inactive: 1.04. The same measure for `COc1ccc(C#Cc2ccc3c(c2)[C@]2(C(=O)N3)[C@H](c3ccc(O)cc3)N3[C@H](c4ccccc4)[C@H](c4ccccc4)OC(=O)[C@H]3[C@@H]2C(=O)N2CCc3cc(OC)c(OC)cc3C2)cc1`: inactive: 1.03. The same measure for `CCC(NC(C)C)C(O)c1ccc(O)c(O)c1.CS(=O)(=O)O` (stereo not given): inactive: 1.04.

For the molecule `COc1ccc(S(=O)(=O)Nc2cccc3c2O[C@@H](CN(C)C(=O)NC(C)C)[C@@H](C)CN([C@@H](C)CO)C3=O)cc1`, the relative growth is inactive: 0.988. Regarding `COc1cccc(NC(=O)N2C[C@H](O)COC[C@@H]3O[C@@H](CC(=O)NCc4ccccc4F)CC[C@H]32)c1`, the relative growth was inactive: 0.983. In the case of `C[C@@H]1CN([C@H](C)CO)C(=O)c2cc(C#CC3(O)CCCC3)cnc2O[C@@H]1CN(C)C(=O)Nc1ccc2c(c1)OCO2`, the relative growth is inactive: 0.978. The result for `Cc1noc(C)c1NC(=O)Nc1ccc2c(c1)C(=O)N([C@@H](C)CO)C[C@H](C)[C@@H](CN(C)S(=O)(=O)c1ccccc1)OCCCC[C@@H](C)O2` reads inactive: 0.989.
